# Results reported in paper PMC4558169.
# Amino acid sequences for entries named in this document (tags omitted).
# UniProt P13861: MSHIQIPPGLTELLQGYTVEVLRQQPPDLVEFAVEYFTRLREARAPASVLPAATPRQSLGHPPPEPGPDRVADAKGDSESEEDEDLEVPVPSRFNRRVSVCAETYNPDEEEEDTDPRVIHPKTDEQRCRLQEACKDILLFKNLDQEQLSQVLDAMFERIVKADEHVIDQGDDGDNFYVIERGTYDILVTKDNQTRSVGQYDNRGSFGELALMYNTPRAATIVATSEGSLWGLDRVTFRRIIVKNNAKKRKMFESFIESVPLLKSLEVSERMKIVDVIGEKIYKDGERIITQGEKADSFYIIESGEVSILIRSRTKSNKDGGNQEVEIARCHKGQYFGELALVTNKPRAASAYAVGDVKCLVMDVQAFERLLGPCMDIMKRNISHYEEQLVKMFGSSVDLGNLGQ
# Results are given in words; binding and its absence hold for the method and conditions named. For some of these results: Binding seen in cells or lysates may run through a third protein. Some entries that bind do so weakly or less than the wild type. For some of these results: Tags and fused reporters may be left off the sequences shown.
# T1: Flag-tagged RAI16 fragment 251-500 (UniProt Q86V87)
# T1 sequence: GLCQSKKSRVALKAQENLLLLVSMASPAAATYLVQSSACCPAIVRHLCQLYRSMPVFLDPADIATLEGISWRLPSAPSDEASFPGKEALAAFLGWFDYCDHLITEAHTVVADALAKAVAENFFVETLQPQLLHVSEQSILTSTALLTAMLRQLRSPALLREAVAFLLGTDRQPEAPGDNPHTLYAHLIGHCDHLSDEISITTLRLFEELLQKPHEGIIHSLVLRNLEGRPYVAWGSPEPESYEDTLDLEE
# T2: Flag-tagged RAI16 S325A mutant (UniProt Q86V87)
# T2 sequence: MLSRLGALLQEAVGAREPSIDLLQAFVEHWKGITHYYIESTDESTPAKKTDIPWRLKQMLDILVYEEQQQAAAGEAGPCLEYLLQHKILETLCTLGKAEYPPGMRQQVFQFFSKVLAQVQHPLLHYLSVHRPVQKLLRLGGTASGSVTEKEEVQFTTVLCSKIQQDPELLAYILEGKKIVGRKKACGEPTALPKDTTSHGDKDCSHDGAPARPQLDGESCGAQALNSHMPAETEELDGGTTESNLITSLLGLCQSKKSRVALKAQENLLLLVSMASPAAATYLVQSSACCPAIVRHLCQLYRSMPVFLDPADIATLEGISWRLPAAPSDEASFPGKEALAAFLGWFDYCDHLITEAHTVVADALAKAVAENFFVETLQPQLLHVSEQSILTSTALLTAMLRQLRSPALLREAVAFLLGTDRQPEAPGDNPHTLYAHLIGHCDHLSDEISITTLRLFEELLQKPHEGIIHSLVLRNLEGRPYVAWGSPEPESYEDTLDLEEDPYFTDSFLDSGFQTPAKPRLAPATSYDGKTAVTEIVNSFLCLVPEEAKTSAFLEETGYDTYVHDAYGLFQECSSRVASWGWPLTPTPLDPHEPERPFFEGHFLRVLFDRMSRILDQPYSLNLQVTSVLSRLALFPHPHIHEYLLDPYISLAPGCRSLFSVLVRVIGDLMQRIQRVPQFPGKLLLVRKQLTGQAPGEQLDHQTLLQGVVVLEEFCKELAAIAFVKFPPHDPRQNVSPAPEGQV
# B1: Myc-tagged 14-3-3θ, full length (protein, UniProt P27348 1-245)
# chain: MEKTELIQKAKLAEQAERYDDMATCMKAVTEQGAELSNEERNLLSVAYKNVVGGRRSAWRVISSIEQKTDTSDKKLQLIKDYREKVESELRSICTTVLELLDKYLIANATNPESKVFYLKMKGDYFRYLAEVACGDDRKQTIDNSQGAYQEAFDISKKEMQPTHPIRLGLALNFSVFYYEILNNPELACTLAKTAFDEAIAELDTLNEDSYKDSTLIMQLLRDNLTLWTSDSAGEECDAAEGAEN
# B2: endogenous 14-3-3θ (protein, UniProt P27348 1-245)
# chain: B1 chain
# Columns and labels:
# [1] = molecular target: His-tagged fusion protein of PKA-RIIα, purified (human) (UniProt P13861); assay: ELISA; 2 ug purified PKA-RIIα coated overnight at 4°C, blocked with 3% BSA in PBST; purified RAI16 alone or with sHt31 or sYF, 1 h at 37°C; detected with anti-RAI16 antibody, HRP anti-rabbit IgG and TMB; both purified
# [2] = molecular target: Ha-tagged PKA-RIIα (type II regulatory subunit of PKA), full length (human) (UniProt P13861); assay: co-IP; competition: peptide sHt31 or sYF against the co-precipitation of Flag-tagged RAI16 and Ha-tagged PKA-RIIα from HEK293T cells (not told whether added to cells or lysate); only the binder purified
# [3] = molecular target: T1, Flag-tagged RAI16 fragment 251-500; assay: co-IP; two tagged proteins (Flag, Ha, His or Myc) co-expressed in HEK293T cells; lysates immunoprecipitated with an anti-tag antibody, partner detected by immunoblot with the other anti-tag antibody; in Figure 4E cells untreated, treated 10 min with forskolin or with forskolin + PKImyr
# [4] = molecular target: Flag-tagged retinoic acid induced 16 (RAI16), full length (UniProt Q86V87); assay: as above
# [5] = molecular target: endogenous RAI16 (human (endogenous in HEK293T)) (UniProt Q86V87); assay: co-IP; endogenous proteins of HEK293T lysates, immunoprecipitated with an antibody against one protein and blotted for the other
# [6] = molecular target: Flag-tagged retinoic acid induced 16 (RAI16), full length (UniProt Q86V87); assay: co-IP; Flag-tagged RAI16 or its mutants expressed in HEK293T cells, alone or with Ha-tagged PKA-RIIα; anti-Flag immunoprecipitation, endogenous 14-3-3θ detected with anti-14-3-3θ antibody; cells untreated, treated with forskolin or with forskolin + PKImyr
# [7] = molecular target: T2, Flag-tagged RAI16 S325A mutant; assay: as above
binder,measurement,setting,value
YCDHLITEAHTVVADALAKAVAENF [Peptide sYF (Aa348-373 of RAI16)],binding,[1],binds
same,binding,[2],binds
B1,binding,[3],binds
same,binding,[4],binds
B2,binding,[5],binds
same,binding,[6],binds
same,binding,[7],no binding
